The values that follow come from ChEMBL document CHEMBL1157539, “Thousands of chemical starting points for antimalarial lead identification” (Nature, 2010).

Whole data set: some 13,000 compounds, median “IFI” near 4, cut for the highest 2% near 17. Some of the results follow.

The nature of the assay: GSK_TCMDC: Inhibition Frequency Index (IFI). The number of non-kinase HTS assays where a compound showed > 50 % inhibition, expressed as a percentage of the number of such assays in which the compound was tested (-0 is zero). It counts as functional.
As for `COc1ccc2cc(CNCCCCCCNCc3ccc4cc(OC)ccc4c3)ccc2c1`, the IFI worked out at 12.3%.

Turning to `COc1ccc2nccc(N3CCC(O)(CCNCc4ccc5c(n4)NC(=O)CO5)CC3)c2n1`, the IFI turned out to be 0.74%.

With `O=C(Nc1cccc(C(F)(F)F)c1)Nc1ccc2nonc2c1`, the IFI was 22.5%.

Compound `c1ccc(COc2ccc(Nc3ncnc4cnc(-c5ccc(CN6CCCCC6)o5)cc34)cc2)cc1` registered an IFI of 1.47%.

For the compound `CCCCOc1ccc(-n2c(Nc3ccccc3)nc3cc(S(N)(=O)=O)ccc32)cc1`, the IFI was 3.1%.

Compound `CN1CCC(NCc2cccc(-c3ccc(S(=O)(=O)NCCN4CCCC4)s3)c2)CC1` displayed an IFI of -0%.

`COc1ccc2c(N/N=C/c3cccc([N+](=O)[O-])c3)cc(C)nc2c1` showed an IFI of 1.5%.

In turn, `CC(=O)Nc1ccc(OCCN(Cc2ccccc2C(F)(F)F)c2ccc(C#N)c(C(F)(F)F)c2)cc1` gave an IFI of 7.94%.

Consider `CC(C)NCc1cccc(-c2ccc(NC(=O)c3cccc(C#N)c3)cc2)c1`, for which the IFI was found to be 1.98%.

`CC(C)CCNC(=O)c1cnc2c(O)cccc2c1Nc1cccc(NC(=O)c2ccc(F)cc2)c1` returned an IFI of 7.81%.

`CCCC(C)c1ccc(N2C(N)=NC(N)=NC2(C)C)cc1` (centres undefined) gave an IFI of 4.38%.

Compound `COc1ccccc1N1CCN(C(C(=O)NCc2ccc3c(c2)OCO3)c2ccc(C)cc2)CC1` (centres undefined) had an IFI of 1.38%.

For `Cc1ccc(-n2c(C)nc3c(Nc4ccc(-c5ccncc5)cc4)ncnc32)c(C)c1`, the IFI came out at 7.97%.

For `Cc1cc(O)c(CNC2CCCCC2)cc1C`, the IFI is -0%.

The compound `O=C(Nc1ccccc1)N(Cc1ccccc1-c1cccc(CNC2CCCC2)c1)C1CCN(Cc2ccccc2)CC1` had an IFI of 7.86%.

The compound `CC(=O)Nc1ccc(NC(=O)c2cc(-c3ccc(C)cc3O)n[nH]2)cc1` had an IFI of 0%.

`O=C(Nc1cccc(-c2ccc(-c3nc4cc(F)ccc4[nH]3)cc2)c1)Nc1ccc(Cl)c(Cl)c1` yielded an IFI of 4.95%.

`Cc1cc(N[C@@H](Cc2ccccc2)C(=O)NCCOc2ccccc2)nc(Nc2ccccc2)n1` showed an IFI of 4.65%.

The compound `C(=NN=c1cc(-c2ccccc2)[nH]c2ccccc12)c1cccnc1` yielded an IFI of 4.9%.

`c1ccc2c(CNc3ccnc(NCc4cccc5ccccc45)n3)cccc2c1` displayed an IFI of 16.2%.

With `COc1cc(F)c2ncc(Cl)c(C(O)CN3CCC(NC(=O)c4ccc5c(c4)NC(=O)CS5)CC3)c2c1` (centres undefined), the IFI was found to be 2.19%.

`O=C(c1cccc(-c2ccc(-c3nc4cc(F)ccc4[nH]3)s2)c1)N1CCCCC1CN1CCC(O)C1` (centres undefined) displayed an IFI of 1.75%.

Consider `O=C(NCCc1cccc(F)c1)c1ccc(N2CCN(c3ccncc3)CC2)cn1`, for which the IFI stood at 10.3%.

In turn, `Cc1cc(NC(=O)Nc2ccc(Cl)cc2F)c2ccccc2n1` had an IFI of 7.32%.

As for `Cc1cc(NCCC(=O)NCCOc2ccccc2)nc(NCCOc2ccccc2)n1`, the IFI turned out to be 4.88%.

With `O=C(Nc1cc(Cl)ccc1-n1cncn1)C1(c2ccccc2)CC1`, the IFI is 3.88%.

In turn, `CN1CCN(c2cc3c(cc2Cl)CCN3C(=O)Cc2ccc(Cl)c(NC(=O)Nc3cccc(C#N)c3)c2)CC1` returned an IFI of 2.88%.

With `Cc1cccc(C(=O)NC(NC(=S)Nc2cc(Cl)ccc2Cl)C(Cl)(Cl)Cl)c1` (centres undefined), the IFI is 5%.

`COCCn1c(C)nc2ccccc2c1=O` displayed an IFI of -0%.

`CCOC(=O)C(C#N)NC(=O)C=Cc1ccccc1` (centres undefined) showed an IFI of 3.52%.

`CC1(C)NC(N)=NC(=N)N1OCCCO` returned an IFI of 2.19%.

In turn, `CCN(CC)CCN(Cc1ccc(-c2ccc(C(F)(F)F)cc2)cc1)C(=O)Cn1c(CCc2cc(F)c(F)cc2F)nc(=O)c2ccccc21` yielded an IFI of 8.89%.

In turn, `O=C(/C=N/O)Nc1ccccc1[N+](=O)[O-]` showed an IFI of 0%.

For the compound `Cc1cc(=O)[nH]c(-n2nc(C)cc2NC(=O)CC(c2ccccc2)c2ccccc2)n1`, the IFI came out at 10.4%.

Turning to `O=C(NCc1ccc(F)cc1)Nc1cccc(-c2ccc(-c3nc4ccccc4[nH]3)cc2)c1`, the IFI came to 5.08%.

Turning to `CN(C)CCN(C)Cc1cccc(-c2cccc(NC(=O)c3cccc(C#N)c3)c2)c1`, the IFI came to 1.33%.

On to `Cc1nccc2c(NC(=O)N[C@@H]3CCN(c4ncc(C(F)(F)F)cc4Br)C3)cccc12`, for which the IFI came out at 5.11%.

`Cc1cc(N[C@@H](CC(C)C)C(=O)NCCOc2ccccc2)nc(NCC2CCCCC2)n1`: the IFI was 13.9%.

Compound `O=C(N[C@@H](CC1CCCCC1)C(=O)NCCN1CCCCC1)c1ccc(O)c(-c2ccc(Cl)c(Cl)c2)c1` came in with an IFI of 8.7%.

`CCN(CCCN1CCCCC1)c1cc(C)nc(Nc2ccc(C(C)C)cc2)n1` yielded an IFI of 10.3%.

In turn, `Cc1ccccc1C1CCN(C2CCC(NC(=O)/C=C/c3cc(F)ccc3C(F)(F)F)CC2)CC1` (centres undefined) came in with an IFI of 9.68%.

In the case of `COCCN1CCC(N(CC2(O)CCN(c3ccc(C(F)(F)F)cc3)CC2)C(=O)Cn2c(SCc3cccc(F)c3F)cc(=O)c3ccccc32)CC1`, the IFI was determined as 9.77%.

Consider `Cc1cc(Br)cnc1CCCCNC1=NC(=O)CN1C`, for which the IFI was -0%.

Compound `Fc1cc(Cl)ccc1Nc1ccnc(Nc2ccc3cn[nH]c3c2)n1` gave an IFI of 7.97%.

On to `CN1CCN(Cc2cc3cc(NC(=O)/C=C/c4ccc(Cl)cc4)ccc3s2)CC1`, for which the IFI was 9.72%.

With `Cc1ccc2ncc(Cl)c(CCN3CCC(NCc4ccc5c(n4)NC(=O)CS5)CC3)c2n1`, the IFI stood at 3.13%.

Take `N#Cc1ccc(-c2ccc(C(=O)NCCCCN3CCC(c4ccc5c(c4OCc4ccncc4)CCCC5)CC3)cc2)cc1`: the IFI turned out to be 5.41%.

`COc1cccc2c(C)cc(NCc3ccc(Cl)cc3)nc12` displayed an IFI of 1.42%.

The compound `O=C(Nc1ccc(-c2nc3ccccc3[nH]2)cc1)c1ccc(-c2cccc([N+](=O)[O-])c2)o1` returned an IFI of 4.23%.

`COc1c(CCNCCCCNCCc2cc(Cl)c3ccccc3c2OC)cc(Cl)c2ccccc12` returned an IFI of 19%.

For the compound `CN(C)c1ccc(-c2ccc(C(=O)NC3CCN(Cc4ccc(C(C)(C)C)cc4)CC3)s2)cc1`, the IFI came to 15.8%.

With `O=C(Cc1ccccc1)NC(Nc1ccc([N+](=O)[O-])cc1)C(Cl)(Cl)Cl` (centres undefined), the IFI was determined as 6.99%.

Turning to `CCCCCCNC[C@@H](O)[C@H](Cc1ccccc1)NC(=O)c1cc(NCC)cc(N2CCCCS2(=O)=O)c1`, the IFI stood at 3.73%.

On to `COc1ccc2nccc([C@@H](O)CN3CCC(NCc4ccc5c(c4)NC(=O)CO5)CC3)c2c1`, for which the IFI turned out to be 1.5%.

As to `O=C(Nc1cccc(-c2ccc(-c3nc4cc(F)ccc4[nH]3)s2)c1)c1ccncc1`, the IFI was 7.02%.

Compound `Oc1ccc(CCNc2nc(NCCCOc3ccccc3-c3ccc(F)cc3)nc(N3CCNCC3)n2)cc1` came in with an IFI of 13.8%.

`COc1cccc(CNC[C@@H](O)[C@H](Cc2ccccc2)NC(=O)c2cc(N3CCCC3=O)c3[nH]cc(C(C)C)c3c2)c1` showed an IFI of 2.86%.

As to `Cc1cnc(NCC2CCCCC2)nc1NCC(=O)Nc1ccccc1`, the IFI came to 8.7%.

Compound `O=C(c1cccc(Br)c1)N1CCN(c2ccc([N+](=O)[O-])c(NC3CC3)c2)CC1` registered an IFI of 4.2%.

The compound `O=S(=O)(c1c(Cl)cccc1Cl)N1CCCCC(c2ccc(C(F)(F)F)cc2)=N1` had an IFI of 3.08%.

As for `CN1CCN(CCCN(Cc2cccc(-c3ccc(CNCc4ccc5c(c4)OCO5)cc3)c2)C(=O)CCC2CCCC2)CC1`, the IFI came to 7.97%.

`O=[N+]([O-])c1ccc(N2CCCN(C(=S)Nc3ccc(F)cc3Br)CC2)nc1`: the IFI was found to be 4.55%.

Compound `CN(c1ccc(C(=O)N[C@@H](CCC(=O)O)C(=O)O)cc1)S(=O)(=O)c1ccc2nc(N)[nH]c(=O)c2c1` returned an IFI of 0.72%.

As to `CC(=O)Nc1ncc(C(=O)Nc2cccc(-c3cccc(-c4nc5cc(C(F)(F)F)ccc5[nH]4)c3)c2)s1`, the IFI amounted to 5.41%.

The compound `CC(C)(C)c1ccc(S(=O)(=O)Nc2ccccc2N2CCOCC2)cc1` gave an IFI of -0%.

`COc1cccc(NC(=O)Nc2c(-c3cccc(C(F)(F)F)c3)c(C(F)(F)F)nn2C)c1`: the IFI is -0%.

`COc1ccc(O)c(C(=O)c2cc(C(=O)NCCc3ccccc3)c(=O)n(CCc3ccccc3)c2)c1` displayed an IFI of 2.38%.

As for `COc1ccccc1C(=O)Nc1ccc(Nc2nc(C)cc(N(C)C)n2)cc1`, the IFI is 2.38%.

As for `CC(C)C[C@@H](/C=N/N1CCNC1=O)NC(=O)[C@H](CC(C)C)NC(=O)c1ccc(OCCN2CCOCC2)cc1`, the IFI was found to be 9.01%.

Consider `COc1ccc(C=NN=c2cc(C)[nH]c3c(C)cccc23)c2ccccc12`, for which the IFI worked out at 2.84%.

In turn, `CCOC(=O)c1ccc(N2CCN(c3cc(C)ccc3C)CC2)c(NC(=O)Nc2ccc(Cl)c(Cl)c2)c1` registered an IFI of 1.48%.

Consider `Cc1ccc(C)c(Sc2ccc(NC(=O)CN3CCN(C(=O)c4ccco4)CC3)cc2)c1`, for which the IFI amounted to 8.33%.

For `Cc1cc2nc(-c3ccc(/C=C/C(=O)NC4CCCCC4)cc3)[nH]c2cc1C`, the IFI amounted to 3.7%.

`O=C(Cn1c(CCc2cccc(F)c2F)cc(=O)c2cccnc21)N(CCN1CCCC1)Cc1ccc(-c2ccc(C(F)(F)F)cc2)cc1` yielded an IFI of 13.3%.

Take `Cc1cc(Nc2cccc(C(F)(F)F)c2)nc(N)n1`: the IFI is -0%.

With `O=C(Nc1cccc(OC2CCN(Cc3ccc(F)cc3)CC2)c1)c1ccc(C(F)(F)F)cc1`, the IFI was 10.5%.

`COc1ccc2nc(-c3ccccc3)cc(NCCCNc3cc(-c4ccccc4)nc4ccc(OC)cc34)c2c1`: the IFI worked out at 5.15%.

The compound `O=C(Nc1ccc(F)c(Cl)c1)NC1CCN(c2ccnc3cc(Cl)ccc23)C1` (centres undefined) gave an IFI of 9.23%.

Compound `CCn1c(-c2nonc2N)nc2c(-c3cccc(NC(=O)Nc4cccc(Cl)c4)c3)ncc(OCCCN)c21` showed an IFI of 17.6%.

`CN(CC(=O)Nc1ccc(F)c(F)c1F)c1ncnc2sc(-c3ccccc3)cc12` displayed an IFI of 0.84%.

On to `CC1CCN(C(=O)[C@H](Cc2c[nH]c3ccccc23)NS(=O)(=O)c2ccc(Cl)cc2)CC1`, for which the IFI was -0%.

Take `O=C(/C=C/c1ccc(Cl)c(Cl)c1)N1CCC(CN2CCC(c3c[nH]c4ccncc34)CC2)CC1`: the IFI amounted to 5.04%.

Take `Cc1nc(N/C=C/c2ccc(O)cc2)cc(N2CCCC2)n1`: the IFI was -0%.

`Cn1nc(-c2ccc(NC(=O)Nc3ccc4ccccc4c3)c(F)c2)c2cnc(NCCN3CCOCC3)nc21` returned an IFI of 3.52%.

Compound `Cc1cccc(NC(=O)c2cnc(N3CCN(c4ccncc4)CC3)c(Cl)c2)c1` showed an IFI of 7.14%.

On to `Cc1cc(CN2CC[C@H](NC(=O)c3ccc(Cl)c(Cl)c3)C2)ccc1OC1CCN(Cc2ccccc2)CC1`, for which the IFI came out at 6.9%.

For `Cc1cccc2nc(-c3ccc(-c4ccc(CN5CCC(C(N)=O)CC5)cc4)s3)[nH]c12`, the IFI worked out at 3.85%.

`CC(C)(C)c1ccc(CN2CCCCC(NC(=O)c3cc(-c4ccccc4Cl)cs3)C2)cc1` (centres undefined) came in with an IFI of 1.82%.

As for `OC(CNCc1ccccc1OCc1ccccc1)c1cc(C(F)(F)F)cc(C(F)(F)F)c1` (centres undefined), the IFI came out at 5.98%.
